# The other results are listed elsewhere or left out.
# B1: InvD YPIII (Yersinia pseudotuberculosis), B1JSC0 (protein)
# chain: MIKYFSFFKKPEPIVGILPNRQSHHILPTHIRRVAWGTLLLQLFIPLSVSFSPAIAAMKASKADTMVSYSSTEPYVLGSGETVAMVAKKYGITVDELKKINIYRTFSRPFTALTTGDEIDIPRKASPFSVDNNKDNRLSVENTLAGHAVAGATALSNGDVAKSGERMVRSAASNEFNNSAQQWLSQFGTARVQLNINDDFHLDGSAADVLIPLYDNEKSILFTQLGARNKDSRNTVNMGAGVRTFQGNWMYGANTFFDNDLTGKNRRIGVGAEAWTDYLKLSANNYFGITDWHQSRDFIDYNERPANGYDLRAEAYLPSYPQLGGKAMYEKYRGDDVALFGKDNRQKNPHAITAGVNYTPIPLVTIGAEHRAGKGGQNDSNINFQLNYRLGETWQSHIDPSAVAASRTLAGSRYDLVERNNHIVLDYQKQNLVRLSLPDSLAGDPFSQLSVTAQVTATHGLERIDWQSAELMAAGGVLKQTSKNGLEITLPEYQMNRTGGNSYILNAIAYDTQGNASSQASMLITVNAQKINIANSTLVAVPINIEANNSDTSVVTLTLKDDNNIPVTGQDVTFLSPLGTLSAMTDSGNGVYTATLTAGTVSGTTAVSSNINGSALDMTPATVTLNGNSGELSITHSMLVAAPVNIEANGSDTSVVTLTLRDSNNNPVTGQTVTFAGTLGTLGAVTEGSSGVYTATLTAGIMVGTSSITASVNSTALGVTPATVTLNGDSGNLSTTNSTLVAAPVNIEANSSDTSVVTLTLRDNNNNPVTGQTVVFTSTLGTLGNVTEQASGVYTATLTAGTVSGVASLSVSVGGNALGVTPATVTLNGDSGNLSTTNSTLVAAPVNIEANSSDTSVVTLTLRDNNNNPVTGQTVNFAGTLGTLGTVSEGSSGVYTTTLTAGTVAGVASLSVNVGGNALGVTPATVTLNGNSGNLSATNSTLVAAPVNIEANSSDTSVVTLTLRDNNNNPVTGQTVAFTSTLGTLGNVTEQASGVYTATLTAGTVSGVASLSVSVNSNALGVTPATVTLNGDSGNLSTTNSTLVAAPVNIEANSSDTSVVTLTLRDNNNNPVTGQTVAFTSTLGTLGNVTEQASGLYTATLTAGTVSGVASLSVNVGGNALGVTPATVTLNGDSGNLSATNSTLVAAPVNIEANSSDTSVVTLTLRDNNNNPVTGQTVAFTSTLGTLGNVTEQASGLYTATLTAGTVSGVASLSVNVGGTALGVTPATVTLNGDSGNLSTTNSTLVAAPVNIEANSSDTSVVTLTLRDNNNNPVTGQTVAFTSTLGTLGNVTEQASGLYTATLTAGTVSGVASLSVSVNSTALGVTPATVTLNGDSGNLSTTNSTLVAAPVNIEANSSDTSVVTLTLRDNNNNPVTGQTVAFTSTLGTLGNVTEQASGVYTATLTAGTVAGVASLSVNVGGNALGVTPATVTLNGDSGNLSTTNSTLVAAPVNIEANSSDTSVVTLTLRDNNNNPVTGQTVAFTSTLGTLGNVTEQASGVYTATLTAGTVSGVASLSVSVGSSALGVTPATVTLNGDSGNLSTTNSTLVAAPVNIEANNSDTSVVTLTLRDNNNNPVTGQTVAFTSTLGTLGNVTEQASGVYTATLTAGTVSGVASLSVSVNSNALGVTPATVTLNGDSGNLSTTNSTLVAAPVNIEANSSDTSVVTLTLRDNNNNPVTGQTVVFTSTLGTLGNVTEQASGLYTATLTAGTVSGVASLSVSVGGNALGVTGNITLAPGALDAARSILAVNKPSINADDRIGSTITFTAQDAQGNAITGLDIAFMTDLENSQIMTLVDHNDGTYTANINGTQTGIANIAVQSSGATIAGLAATMVTITPGAWNTTQATPVMTVALPITTCQSSSGVYKRYYIGIVTHELYDNYGNEISGILTYNLGAGRYTTVTSQNSSVSGSNGLTRRSNSPVSHFILTSDAYTSQAACYAERIANVNVTITVTAITDDFKTSAVNKVFILGTGSN
# Key:
# Test in all cases: glycan array binding signal (z-score within array); higher = stronger binding
# Conditions in all cases: glycan notation: IUPAC condensed, linker removed
# [1] = molecular target: GlcNAc(b1-3)Gal(b1-4)GlcNAc(b1-3)Gal(b1-4)GlcNAc(b1-3)Gal(b1-4)GlcNAc(b1-3)Gal(b1-4)GlcNAc(b1-2)[GlcNAc(b1-3)Gal(b1-4)GlcNAc(b1-3)Gal(b1-4)GlcNAc(b1-3)Gal(b1-4)GlcNAc(b1-3)Gal(b1-4)GlcNAc(b1-6)]Man(a1-6)[GlcNAc(b1-3)Gal(b1-4)GlcNAc(b1-3)Gal(b1-4)GlcNAc(b1-3)Gal(b1-4)GlcNAc(b1-3)Gal(b1-4)GlcNAc(b1-2)Man(a1-3)]Man(b1-4)GlcNAc(b1-4)[Fuc(a1-6)]GlcNAc
# Method in brief: (§1)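 The binding signal is a Z-score computed within each array and averaged over linkers. Arrays of the same protein sequence at different concentrations or buffers were also averaged together. Data originate from 3228 arrays in the Consortium for Functional Glycomics database, kept only where the protein sequence was available.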
# [2] = molecular target: GlcNAc(b1-3)Gal(b1-4)GlcNAc(b1-3)Gal(b1-4)GlcNAc(b1-3)GalNAc
# Method in brief: as §1
# [3] = molecular target: GlcNAc(b1-3)Gal(b1-4)GlcNAc(b1-3)GalNAc
# Method in brief: as §1
# [4] = molecular target: GlcNAc(b1-3)Gal(b1-4)GlcNAc(b1-3)[GlcNAc(b1-3)Gal(b1-4)GlcNAc(b1-3)]GalNAc
# Method in brief: as §1
# [5] = molecular target: GlcNAc(b1-3)Gal(b1-4)GlcNAc(b1-6)[Gal(b1-3)]GalNAc
# Method in brief: as §1
# [6] = molecular target: GlcNAc(b1-3)Gal(b1-4)GlcNAc(b1-6)[GlcNAc(b1-3)Gal(b1-3)]GalNAc
# Method in brief: as §1
# [7] = molecular target: GlcNAc(b1-3)Gal(b1-4)GlcNAc(b1-6)[GlcNAc(b1-3)]Gal(b1-4)GlcNAc
# Method in brief: as §1
# GlcNAc(b1-3)GalNAc = molecular target: GlcNAc(b1-3)GalNAc
# Method in brief: as §1
# GlcNAc(b1-3)Man = molecular target: GlcNAc(b1-3)Man
# Method in brief: as §1
# [8] = molecular target: GlcNAc(b1-3)[GlcNAc(b1-4)][GlcNAc(b1-6)]GlcNAc
# Method in brief: as §1
# [9] = molecular target: GlcNAc(b1-3)[GlcNAc(b1-6)]Gal(b1-4)GlcNAc
# Method in brief: as §1
# [10] = molecular target: GlcNAc(b1-3)[GlcNAc(b1-6)]GalNAc
# Method in brief: as §1
# [11] = molecular target: GlcNAc(b1-4)Gal(b1-4)GlcNAc
# Method in brief: as §1
# GlcNAc(b1-4)GlcNAc = molecular target: GlcNAc(b1-4)GlcNAc
# Method in brief: as §1
# [12] = molecular target: GlcNAc(b1-4)GlcNAc(b1-4)GlcNAc
# Method in brief: as §1
# [13] = molecular target: GlcNAc(b1-4)GlcNAc(b1-4)GlcNAc(b1-4)GlcNAc(b1-4)GlcNAc
# Method in brief: as §1
# [14] = molecular target: GlcNAc(b1-4)GlcNAc(b1-4)GlcNAc(b1-4)GlcNAc(b1-4)GlcNAc(b1-4)GlcNAc
# Method in brief: as §1
# [15] = molecular target: GlcNAc(b1-4)[GlcNAc(b1-6)]GalNAc
# Method in brief: as §1
# [16] = molecular target: GlcNAc(b1-6)Gal(b1-4)GlcNAc
# Method in brief: as §1
# GlcNAc(b1-6)GalNAc = molecular target: GlcNAc(b1-6)GalNAc
# Method in brief: as §1
# [17] = molecular target: GlcNAc6S(b1-3)Gal(b1-4)GlcNAc
# Method in brief: as §1
# Kdn(a2-3)Gal(b1-3)GalNAc = molecular target: Kdn(a2-3)Gal(b1-3)GalNAc
# Method in brief: as §1
# Kdn(a2-3)Gal(b1-3)GlcNAc = molecular target: Kdn(a2-3)Gal(b1-3)GlcNAc
# Method in brief: as §1
# Kdn(a2-3)Gal(b1-4)Glc = molecular target: Kdn(a2-3)Gal(b1-4)Glc
# Method in brief: as §1
# Kdn(a2-3)Gal(b1-4)GlcNAc = molecular target: Kdn(a2-3)Gal(b1-4)GlcNAc
# Method in brief: as §1
# [18] = molecular target: Kdn(a2-3)Gal(b1-4)[Fuc(a1-3)]GlcNAc
# Method in brief: as §1
# Kdn(a2-6)Gal(b1-4)GlcNAc = molecular target: Kdn(a2-6)Gal(b1-4)GlcNAc
# Method in brief: as §1
# [19] = molecular target: Man(a1-2)Man(a1-2)Man(a1-3)Man
# Method in brief: as §1
# [20] = molecular target: Man(a1-2)Man(a1-2)Man(a1-6)[Man(a1-3)]Man
# Method in brief: as §1
# Man(a1-2)Man(a1-3)Man = molecular target: Man(a1-2)Man(a1-3)Man
# Method in brief: as §1
# [21] = molecular target: Man(a1-2)Man(a1-3)[Man(a1-2)Man(a1-6)]Man
# Method in brief: as §1
# [22] = molecular target: Man(a1-2)Man(a1-3)[Man(a1-2)Man(a1-6)]Man(a1-6)[Man(a1-2)Man(a1-2)Man(a1-3)]Man
# Method in brief: as §1
# [23] = molecular target: Man(a1-2)Man(a1-3)[Man(a1-2)Man(a1-6)]Man(a1-6)[Man(a1-2)Man(a1-2)Man(a1-3)]Man(b1-4)GlcNAc(b1-4)GlcNAc
# Method in brief: as §1
# [24] = molecular target: Man(a1-2)Man(a1-3)[Man(a1-6)]Man(a1-6)[Man(a1-2)Man(a1-3)]Man(b1-4)GlcNAc(b1-4)GlcNAc
# Method in brief: as §1
# [25] = molecular target: Man(a1-2)Man(a1-6)[Man(a1-3)]Man(a1-6)[Man(a1-2)Man(a1-2)Man(a1-3)]Man
# Method in brief: as §1
# [26] = molecular target: Man(a1-2)Man(a1-6)[Man(a1-3)]Man(a1-6)[Man(a1-2)Man(a1-2)Man(a1-3)]Man(b1-4)GlcNAc(b1-4)GlcNAc
# Method in brief: as §1
# Man(a1-3)[Man(a1-6)]Man = molecular target: Man(a1-3)[Man(a1-6)]Man
# Method in brief: as §1
# [27] = molecular target: Man(a1-3)[Man(a1-6)]Man(a1-6)[Man(a1-2)Man(a1-3)]Man(b1-4)GlcNAc(b1-4)GlcNAc
# Method in brief: as §1
# [28] = molecular target: Man(a1-3)[Man(a1-6)]Man(a1-6)[Man(a1-3)]Man
# Method in brief: as §1
# [29] = molecular target: Man(a1-3)[Man(a1-6)]Man(a1-6)[Man(a1-3)]Man(b1-4)GlcNAc(b1-4)GlcNAc
# Method in brief: as §1
# [30] = molecular target: Man(a1-3)[Man(a1-6)]Man(b1-4)GlcNAc(b1-4)GlcNAc
# Method in brief: as §1
# [31] = molecular target: Man(a1-3)[Man(a1-6)]Man(b1-4)GlcNAc(b1-4)[Fuc(a1-6)]GlcNAc
# Method in brief: as §1
# Man(a1-6)Man = molecular target: Man(a1-6)Man
# Method in brief: as §1
# Man(b1-4)GlcNAc = molecular target: Man(b1-4)GlcNAc
# Method in brief: as §1
# MurNAc(b1-4)GlcNAc = molecular target: MurNAc(b1-4)GlcNAc
# Method in brief: as §1
binder,measurement,setting,value
B1,glycan array binding signal (z-score),[1],-0.01
same,glycan array binding signal (z-score),[2],-0.229
same,glycan array binding signal (z-score),[3],-0.237
same,glycan array binding signal (z-score),[4],-0.349
same,glycan array binding signal (z-score),[5],-0.315
same,glycan array binding signal (z-score),[6],-0.162
same,glycan array binding signal (z-score),[7],-0.351
same,glycan array binding signal (z-score),GlcNAc(b1-3)GalNAc,-0.278
same,glycan array binding signal (z-score),GlcNAc(b1-3)Man,0.301
same,glycan array binding signal (z-score),[8],-0.169
same,glycan array binding signal (z-score),[9],-0.394
same,glycan array binding signal (z-score),[10],0.194
same,glycan array binding signal (z-score),[11],0.059
same,glycan array binding signal (z-score),GlcNAc(b1-4)GlcNAc,0.089
same,glycan array binding signal (z-score),[12],-0.324
same,glycan array binding signal (z-score),[13],-0.337
same,glycan array binding signal (z-score),[14],-0.243
same,glycan array binding signal (z-score),[15],-0.34
same,glycan array binding signal (z-score),[16],0.089
same,glycan array binding signal (z-score),GlcNAc(b1-6)GalNAc,-0.111
same,glycan array binding signal (z-score),[17],-0.103
same,glycan array binding signal (z-score),Kdn(a2-3)Gal(b1-3)GalNAc,-0.153
same,glycan array binding signal (z-score),Kdn(a2-3)Gal(b1-3)GlcNAc,-0.507
same,glycan array binding signal (z-score),Kdn(a2-3)Gal(b1-4)Glc,-0.427
same,glycan array binding signal (z-score),Kdn(a2-3)Gal(b1-4)GlcNAc,-0.307
same,glycan array binding signal (z-score),[18],-0.256
same,glycan array binding signal (z-score),Kdn(a2-6)Gal(b1-4)GlcNAc,-0.34
same,glycan array binding signal (z-score),[19],-0.209
same,glycan array binding signal (z-score),[20],-0.281
same,glycan array binding signal (z-score),Man(a1-2)Man(a1-3)Man,-0.354
same,glycan array binding signal (z-score),[21],-0.274
same,glycan array binding signal (z-score),[22],-0.118
same,glycan array binding signal (z-score),[23],-0.117
same,glycan array binding signal (z-score),[24],-0.241
same,glycan array binding signal (z-score),[25],-0.216
same,glycan array binding signal (z-score),[26],-0.299
same,glycan array binding signal (z-score),Man(a1-3)[Man(a1-6)]Man,-0.206
same,glycan array binding signal (z-score),[27],-0.333
same,glycan array binding signal (z-score),[28],-0.071
same,glycan array binding signal (z-score),[29],-0.223
same,glycan array binding signal (z-score),[30],-0.311
same,glycan array binding signal (z-score),[31],-0.056
same,glycan array binding signal (z-score),Man(a1-6)Man,0.423
same,glycan array binding signal (z-score),Man(b1-4)GlcNAc,-0.245
same,glycan array binding signal (z-score),MurNAc(b1-4)GlcNAc,-0.127
